# Measured values from ChEMBL document CHEMBL4888484, “Replenishing the malaria drug discovery pipeline: Screening and hit evaluation of the MMV Hit Generation Library 1 (HGL1) against asexual blood stage Plasmodium falciparum ,using a nano luciferase reporter read-out” (2022).
# Among all 150,000 compounds or so, about 540 (0.36%) showed an effect of 50% or more. The list shows a part of the results.
# Tested on: Plasmodium falciparum
# Assay: Primary screen in NF54 nanoGlo assay, in single point, at 2uM, 72h; a lower Z score goes with more inhibition
# Assay type: functional, Erythrocyte
# Details: timepoint 72 hour
Structure (SMILES),% Inhibition,Z score
Cc1cnc(C2CC2)n1CCNS(=O)(=O)c1ccccc1,-11%,1.48
Cc1cc(Br)cc(C(=O)NCCCNS(C)(=O)=O)c1,-16%,1.59
COc1cccc(Cn2c(C3CCCCC3)n[nH]c2=O)c1,-9%,0.94
CC1=CC[C@H]2CN(c3ccc4cc[nH]c4n3)C[C@H]2C1,-11%,1.44
Cn1cc(CCC(=O)N2CCCn3cc(-c4ccccc4)nc32)cn1,-5%,0.65
O=C1C[C@H](c2ccc(O)cc2)c2c(c(C(=O)O)cn2-c2ccccc2)N1,-8%,1.08
CCc1nc(C#N)cc(N[C@@H]2C[C@H](O)[C@H]2n2cc(C)cn2)n1,-9%,1.73
Cn1cnc2c1CCC1C2CCCN1CC(=O)NC1CC1 (stereo not drawn),-13%,2.57
CC1(C)CN(C(=O)Nc2ccc(Oc3cccc(F)c3F)nc2)C[C@@H]1O,-7%,1.05
Cc1cc(CCNC(=O)c2ccncc2)on1,-3%,0.44
O=C1N[C@H](Cc2ccccc2)C(=O)N2CCN(S(=O)(=O)c3ccccc3F)C[C@H]12,-4%,0.45
CCCc1nc(-c2nc(-c3ccc4[nH]cnc4c3)no2)cs1,-3%,0.48
O=C1CCC[C@@H](C(=O)Nc2cc(F)cc(F)c2O)N1,-2%,0.32
COC(=O)c1c(C)nn(Cc2c(C)noc2C)c1C,-11%,2.02
CNC(=O)c1cc(NC(=O)N2CC=C(C)CC2)ccc1OC,-8%,1
CCCC(c1ccccn1)N(C)CC(O)COCc1cccs1 (stereo not drawn),28%,-2.85
CC(=O)N1CC[C@@]2(O)CCN(Cc3ccc(C(F)(F)F)c(F)c3)C[C@H]2C1,-3%,0.52
O=C(CCc1cccnc1)N1CCC(C(F)(F)F)(C(F)(F)F)C1,-11%,1.09
Cc1nsc(NC2CCCCC2O)n1 (stereo not drawn),4%,-0.33
Cc1ncsc1C(=O)N(Cc1cccnc1)Cc1ccco1,-7%,1.19
O=C(C[C@H]1CCCS(=O)(=O)C1)N1CC(Nc2ccc(F)cc2)C1,-8%,1.13
O[C@@H]1c2ccc(-c3cc(F)cc4cccnc34)cc2OC[C@H]1N1CCCC1,-14%,1.34
CCC(CC)(NCC(=O)NC1CC1)c1ccc(Cl)cc1,29%,0.09
CCCc1cc(NS(=O)(=O)Cc2ccc(C)c(F)c2)n[nH]1,4%,-0.6
